# In the supplement of paper PMC8728848:
# The other results are listed elsewhere or left out.
# B1: FimD (Bordetella pertussis) (protein)
# chain: MPARVISFCGAALAVWAGLAVQPAMAVDPPVDCGRALGLHFWSSASLISDQTPDGTLIGKPVVGRSLLSKSCKVPDDIKEDLSDNHDGEPVDIVLELGSNYKIRPQSYGHPGIVVDLPFGSTEETGIAIYIDFGSSPMQKVGERQWLYPQKGEVLFDVLTINGDNAEVRYQAIKVGPLKRPRKLVLSQFPNLFTYKWVFMRGTSQERVLAQGTIDTDVATSTIDLKTCRYTSQTVSLPIIQRSALTGVGTTLGMTDFQMPFWCYGWPKVSVYMSATKTQTGVDGVALPATGQAAGMASGVGVQLINGKTQQPVKLGLQGKIALPEAQQTESATFSLPMKAQYYQTSTSTSAGKLSVTYAVTLNYD
# Columns and labels:
# Test in all cases: glycan array binding signal (z-score within array); higher = stronger binding
# Conditions in all cases: glycan notation: IUPAC condensed, linker removed
# [1] = target: Neu5Ac(a2-3)Gal(b1-4)GlcNAc
# In short: (§1)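 From the Consortium for Functional Glycomics database, 3228 arrays were curated, keeping only those whose protein sequence was available. Binding is given as a within-array Z-score averaged across arrays sharing a protein sequence and across linkers. Negative Z-scores can be read as non-binding.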
# [2] = target: Neu5Ac(a2-3)Gal(b1-4)GlcNAc(b1-2)Man
# In short: as §1
# [3] = target: Neu5Ac(a2-3)Gal(b1-4)GlcNAc(b1-2)Man(a1-3)[GlcNAc(b1-4)][Neu5Ac(a2-3)Gal(b1-4)GlcNAc(b1-2)Man(a1-6)]Man(b1-4)GlcNAc(b1-4)GlcNAc
# In short: as §1
# [4] = target: Neu5Ac(a2-3)Gal(b1-4)GlcNAc(b1-2)Man(a1-3)[Neu5Ac(a2-3)Gal(b1-4)GlcNAc(b1-2)Man(a1-6)]Man(b1-4)GlcNAc(b1-4)GlcNAc
# In short: as §1
# [5] = target: Neu5Ac(a2-3)Gal(b1-4)GlcNAc(b1-2)Man(a1-3)[Neu5Ac(a2-3)Gal(b1-4)GlcNAc(b1-2)Man(a1-6)]Man(b1-4)GlcNAc(b1-4)[Fuc(a1-6)]GlcNAc
# In short: as §1
# [6] = target: Neu5Ac(a2-3)Gal(b1-4)GlcNAc(b1-2)Man(a1-3)[Neu5Ac(a2-6)Gal(b1-4)GlcNAc(b1-2)Man(a1-6)]Man(b1-4)GlcNAc(b1-4)GlcNAc
# In short: as §1
# [7] = target: Neu5Ac(a2-3)Gal(b1-4)GlcNAc(b1-2)[Neu5Ac(a2-3)Gal(b1-4)GlcNAc(b1-4)]Man(a1-3)[GlcNAc(b1-4)][Neu5Ac(a2-3)Gal(b1-4)GlcNAc(b1-2)[Neu5Ac(a2-3)Gal(b1-4)GlcNAc(b1-6)]Man(a1-6)]Man(b1-4)GlcNAc(b1-4)GlcNAc
# In short: as §1
# [8] = target: Neu5Ac(a2-3)Gal(b1-4)GlcNAc(b1-2)[Neu5Ac(a2-3)Gal(b1-4)GlcNAc(b1-4)]Man(a1-3)[GlcNAc(b1-4)][Neu5Ac(a2-3)Gal(b1-4)GlcNAc(b1-4)Man(a1-6)]Man(b1-4)GlcNAc(b1-4)GlcNAc
# In short: as §1
# [9] = target: Neu5Ac(a2-3)Gal(b1-4)GlcNAc(b1-2)[Neu5Ac(a2-3)Gal(b1-4)GlcNAc(b1-6)]Man(a1-6)[Neu5Ac(a2-3)Gal(b1-4)GlcNAc(b1-2)Man(a1-3)]Man(b1-4)GlcNAc(b1-4)GlcNAc
# In short: as §1
# [10] = target: Neu5Ac(a2-3)Gal(b1-4)GlcNAc(b1-2)[Neu5Ac(a2-3)Gal(b1-4)GlcNAc(b1-6)]Man(a1-6)[Neu5Ac(a2-3)Gal(b1-4)GlcNAc(b1-2)Man(a1-3)][GlcNAc(b1-4)]Man(b1-4)GlcNAc(b1-4)GlcNAc
# In short: as §1
# [11] = target: Neu5Ac(a2-3)Gal(b1-4)GlcNAc(b1-3)Gal
# In short: as §1
# [12] = target: Neu5Ac(a2-3)Gal(b1-4)GlcNAc(b1-3)Gal(b1-3)GlcNAc
# In short: as §1
# [13] = target: Neu5Ac(a2-3)Gal(b1-4)GlcNAc(b1-3)Gal(b1-4)GlcNAc
# In short: as §1
# [14] = target: Neu5Ac(a2-3)Gal(b1-4)GlcNAc(b1-3)Gal(b1-4)GlcNAc(b1-2)Man(a1-3)[Neu5Ac(a2-3)Gal(b1-4)GlcNAc(b1-3)Gal(b1-4)GlcNAc(b1-2)Man(a1-6)]Man(b1-4)GlcNAc(b1-4)GlcNAc
# In short: as §1
# [15] = target: Neu5Ac(a2-3)Gal(b1-4)GlcNAc(b1-3)Gal(b1-4)GlcNAc(b1-3)Gal(b1-4)GlcNAc
# In short: as §1
# [16] = target: Neu5Ac(a2-3)Gal(b1-4)GlcNAc(b1-3)Gal(b1-4)GlcNAc(b1-3)Gal(b1-4)GlcNAc(b1-2)Man(a1-3)[Neu5Ac(a2-3)Gal(b1-4)GlcNAc(b1-3)Gal(b1-4)GlcNAc(b1-3)Gal(b1-4)GlcNAc(b1-2)Man(a1-6)]GalNAc
# In short: as §1
# [17] = target: Neu5Ac(a2-3)Gal(b1-4)GlcNAc(b1-3)Gal(b1-4)GlcNAc(b1-3)GalNAc
# In short: as §1
# [18] = target: Neu5Ac(a2-3)Gal(b1-4)GlcNAc(b1-3)Gal(b1-4)GlcNAc(b1-3)[Neu5Ac(a2-3)Gal(b1-4)GlcNAc(b1-3)Gal(b1-4)GlcNAc(b1-6)]GalNAc
# In short: as §1
# [19] = target: Neu5Ac(a2-3)Gal(b1-4)GlcNAc(b1-3)Gal(b1-4)GlcNAc(b1-6)[Gal(b1-3)]GalNAc
# In short: as §1
# [20] = target: Neu5Ac(a2-3)Gal(b1-4)GlcNAc(b1-3)Gal(b1-4)[Fuc(a1-3)]GlcNAc
# In short: as §1
# [21] = target: Neu5Ac(a2-3)Gal(b1-4)GlcNAc(b1-3)GalNAc
# In short: as §1
# [22] = target: Neu5Ac(a2-3)Gal(b1-4)GlcNAc(b1-3)[Neu5Ac(a2-3)Gal(b1-4)GlcNAc(b1-6)]GalNAc
# In short: as §1
# [23] = target: Neu5Ac(a2-3)Gal(b1-4)GlcNAc(b1-6)GalNAc
# In short: as §1
# [24] = target: Neu5Ac(a2-3)Gal(b1-4)GlcNAc(b1-6)[Gal(b1-3)]GalNAc
# In short: as §1
# [25] = target: Neu5Ac(a2-3)Gal(b1-4)GlcNAc(b1-6)[Neu5Ac(a2-3)Gal(b1-3)]GalNAc
# In short: as §1
# [26] = target: Neu5Ac(a2-3)Gal(b1-4)GlcNAc6S
# In short: as §1
# [27] = target: Neu5Ac(a2-3)Gal(b1-4)[Fuc(a1-3)]GlcNAc
# In short: as §1
# [28] = target: Neu5Ac(a2-3)Gal(b1-4)[Fuc(a1-3)]GlcNAc(b1-2)Man
# In short: as §1
# [29] = target: Neu5Ac(a2-3)Gal(b1-4)[Fuc(a1-3)]GlcNAc(b1-3)Gal
# In short: as §1
# [30] = target: Neu5Ac(a2-3)Gal(b1-4)[Fuc(a1-3)]GlcNAc(b1-3)Gal(b1-4)GlcNAc
# In short: as §1
# [31] = target: Neu5Ac(a2-3)Gal(b1-4)[Fuc(a1-3)]GlcNAc(b1-3)Gal(b1-4)[Fuc(a1-3)]GlcNAc(b1-3)Gal(b1-4)[Fuc(a1-3)]GlcNAc
# In short: as §1
# [32] = target: Neu5Ac(a2-3)Gal(b1-4)[Fuc(a1-3)]GlcNAc(b1-3)GalNAc
# In short: as §1
# [33] = target: Neu5Ac(a2-3)Gal(b1-4)[Fuc(a1-3)]GlcNAc(b1-6)[Gal(b1-3)]GalNAc
# In short: as §1
# [34] = target: Neu5Ac(a2-3)Gal(b1-4)[Fuc(a1-3)]GlcNAc(b1-6)[Neu5Ac(a2-3)Gal(b1-3)]GalNAc
# In short: as §1
# [35] = target: Neu5Ac(a2-3)Gal(b1-4)[Fuc(a1-3)]GlcNAc6S
# In short: as §1
# [36] = target: Neu5Ac(a2-3)Gal6S(b1-4)GlcNAc
# In short: as §1
# [37] = target: Neu5Ac(a2-3)Gal6S(b1-4)[Fuc(a1-3)]GlcNAc
# In short: as §1
# Neu5Ac(a2-3)GalNAc = target: Neu5Ac(a2-3)GalNAc
# In short: as §1
binder,measurement,setting,value
B1,glycan array binding signal (z-score),[1],-0.124
same,glycan array binding signal (z-score),[2],1.16
same,glycan array binding signal (z-score),[3],-0.128
same,glycan array binding signal (z-score),[4],-0.589
same,glycan array binding signal (z-score),[5],-0.361
same,glycan array binding signal (z-score),[6],-0.107
same,glycan array binding signal (z-score),[7],-0.191
same,glycan array binding signal (z-score),[8],-0.408
same,glycan array binding signal (z-score),[9],0.174
same,glycan array binding signal (z-score),[10],-0.276
same,glycan array binding signal (z-score),[11],-0.196
same,glycan array binding signal (z-score),[12],-0.537
same,glycan array binding signal (z-score),[13],-0.284
same,glycan array binding signal (z-score),[14],0.646
same,glycan array binding signal (z-score),[15],0.504
same,glycan array binding signal (z-score),[16],0.685
same,glycan array binding signal (z-score),[17],-0.354
same,glycan array binding signal (z-score),[18],0.07
same,glycan array binding signal (z-score),[19],-0.214
same,glycan array binding signal (z-score),[20],-0.403
same,glycan array binding signal (z-score),[21],-0.244
same,glycan array binding signal (z-score),[22],-0.136
same,glycan array binding signal (z-score),[23],-0.312
same,glycan array binding signal (z-score),[24],-0.179
same,glycan array binding signal (z-score),[25],-0.238
same,glycan array binding signal (z-score),[26],-0.031
same,glycan array binding signal (z-score),[27],-0.161
same,glycan array binding signal (z-score),[28],-0.289
same,glycan array binding signal (z-score),[29],-0.477
same,glycan array binding signal (z-score),[30],0.96
same,glycan array binding signal (z-score),[31],-0.135
same,glycan array binding signal (z-score),[32],1.03
same,glycan array binding signal (z-score),[33],0.701
same,glycan array binding signal (z-score),[34],0.086
same,glycan array binding signal (z-score),[35],0.009
same,glycan array binding signal (z-score),[36],-0.282
same,glycan array binding signal (z-score),[37],-0.632
same,glycan array binding signal (z-score),Neu5Ac(a2-3)GalNAc,-0.06
